In PubChem BioAssay AID894 (National Center for Advancing Translational Sciences (NCATS), 2007):
The campaign covered roughly 150,000 compounds. About 6,500 (4.3%) were called active. The inconclusive results got no clear call from the source; some entries with a clear call stand among them for comparison. The call rests on the fitted dose curve; in most records, active means well fitted inhibition curve with a large enough effect (not every such curve was filed as active); inconclusive means small, poorly fitted or top-dose-only effect, or another doubt; inactive means no such curve, though single readings can be large or run the other way. No potency is given beside an inconclusive call; the fits are too rough.

These molecules were tested against 15-hydroxyprostaglandin dehydrogenase [NAD(+)] (Homo sapiens) (UniProt P15428) (assay: qHTS Assay for Inhibitors of HPGD (15-Hydroxyprostaglandin Dehydrogenase)). Conditions: purified HPGD, NADH fluorescence kinetic, PGE2 substrate; activity change, negative = inhibition: active compounds read low.
Outline: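 20 nM HPGD preincubated 15 min at room temperature with compound in 50 mM Tris-HCl pH 8, 0.01% Tween 20. Started with 1 mM NAD+ and 30 uM prostaglandin E2; NADH fluorescence (360/450 nm) read 5 times over 30-s intervals, last minus first.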
On the % scale 0 is the no-effect control and ±100 the full control effect; potency means the concentration at half of the fitted maximal effect; tags describe the fitted curve by direction and shape.

UniProt P15428, sequence (P15428 whole entry, looked up): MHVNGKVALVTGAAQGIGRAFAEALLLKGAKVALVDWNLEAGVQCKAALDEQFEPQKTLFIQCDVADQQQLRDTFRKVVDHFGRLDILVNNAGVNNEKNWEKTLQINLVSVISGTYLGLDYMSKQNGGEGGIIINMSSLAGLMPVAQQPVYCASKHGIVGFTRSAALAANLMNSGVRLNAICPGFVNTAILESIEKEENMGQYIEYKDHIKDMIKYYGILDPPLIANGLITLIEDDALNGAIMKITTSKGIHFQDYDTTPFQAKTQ

Structure (SMILES)	Potency	activity change, negative = inhibition
Cc1cc(/C=C2/C(=O)NN(c3ccccc3)C2=O)c(C)n1-c1cccc(O)c1	inconclusive [inhibitor, partial curve]	
Cc1cccc(N2CCN(C(=O)CN3CCOc4ccccc43)CC2C)c1 (centres undefined)		inactive: -0.195%
COc1cc2c(cc1NC(=O)COC(=O)Cn1cnc3ccccc31)oc1ccccc12	inconclusive [inhibitor, partial curve]	
Cc1cc(N2CCOCC2)nc2ccc(NC(=O)C3CCC(C)CC3)cc12 (centres undefined)	inconclusive [inhibitor, full curve]	
Cc1cccc(NCc2ccccc2O)c1	active: 22.4 µM	
c1csc(-c2nnc3ccccn23)c1	inconclusive [inhibitor, partial curve]	
CSc1nc(-c2ccccc2)nn1C(=O)c1ccc(Cl)cc1	inconclusive [inhibitor, partial curve]	
CCCC(C)C(=O)Nc1nc(C)c(-c2csc(Nc3ccccc3OC)n2)s1 (centres undefined)	inconclusive [inhibitor, partial curve]	
COc1ccccc1/C=N/NC(=O)CCn1cnc2ccccc21		inactive: -17.2%
CC(=O)N1[C@H](C)C=C[C@]1(Cc1ccccc1)C(=O)NCc1ccc(C)o1	active: 14.1 µM	
Cc1nc2cnc(N3CCOCC3)nc2n(CCC#N)c1=O	inconclusive [inhibitor, partial curve]	
CC(=O)c1sc(NC(=O)C=C(C)C)nc1C		inactive: -20.6%
CCOc1ccc(C(=O)c2ccc(O)c(O)c2O)cc1	inconclusive [inhibitor, partial curve]	
O=C(Nc1nnc(SCc2ccc(Cl)cc2)s1)C1CCCO1 (centres undefined)		inactive: -11.1%
Cc1ccc2[nH]c3c(c2c1)CN(C(=O)CN1CCN(c2ccccn2)CC1)CC3		inactive: -22.4%
O=C(ON=C1CCN(c2ccc([N+](=O)[O-])cc2)CC1)c1ccccc1		inactive: -5.89%
CC(=O)Nc1ccc(Nc2cc(C)nc3c(-c4ccc(Cl)cc4)c(C)nn23)cc1	inconclusive [inhibitor, partial curve]	
c1ccc(-c2ncnc3cc4n(c23)CCC4)cc1	inconclusive [inhibitor, partial curve]	
CC(C)(C)Sc1ccc2nc3c(n2c1)CCCC3	inconclusive [inhibitor, partial curve]	
Brc1ccccc1-c1nnc(CSc2nnnn2-c2ccccc2)o1	active: 15.8 µM	
CCOc1ccc(N=C2NC(=O)S/C2=C\c2ccc(N(C)C)cc2)cc1		inactive: -11.4%
Cc1ccc(-n2c(N)c(C(=O)NCc3ccco3)sc2=S)cc1	inconclusive [inhibitor, single point]	
N#C/C(=C\c1ccc(-c2ccc(C(=O)O)cc2)o1)C(=O)NCC1CCCO1 (centres undefined)	inconclusive [inhibitor, partial curve]	
Cc1ccc(S(=O)(=O)NC(C)(C)CSc2ccccn2)cc1		inactive: -2.48%
Cc1cc(-n2c(=O)c(C#N)cc3c(=O)n4ccccc4nc32)no1	inconclusive [inhibitor, full curve]	

Structure (SMILES)	Potency	activity change, negative = inhibition
COc1ccccc1CNc1ncnc2ccc(-c3cccnc3)cc12	inconclusive [inhibitor, partial curve]	
CCOc1cc2c(C#N)c(N3CCCCC3)nc(N)c2c(N)n1	inconclusive [inhibitor, partial curve]	
CC1CCN(c2oc(-c3ccccc3F)nc2C#N)CC1	inconclusive [inhibitor, partial curve]	
CCOC(=O)c1cc(-c2ccc(/C=N\n3cnnc3)o2)ccc1Cl	inconclusive [inhibitor, partial curve]	
Cc1ccccc1-c1c(C)oc2cc(O)ccc2c1=O	inconclusive [inhibitor, partial curve]	
Cc1onc(-c2ccccc2)c1C(=O)Nc1ccc(-c2nnc3n2CCCCC3)cc1	active: 7.08 µM	
O=C(NC(C(=O)c1ccccc1)N1CCOCC1)c1cccs1 (centres undefined)		inactive: -19.6%
CCOC(=O)C1CCCn2c1nc1sc3c(c1c2=O)CCCC3 (centres undefined)		inactive: -6.7%
COc1ccc2oc3ccc(OC)cc3c(=O)c2c1	inconclusive [inhibitor, partial curve]	
CC(=O)c1nc2ccccc2n1S(=O)(=O)c1ccc(Cl)cc1	inconclusive [inhibitor, partial curve]	
Cc1ccc(Nc2ccc(C(=O)N3CCCC3)cn2)c(C)c1	active: 2.24 µM	
CC(=O)c1cccc(NC(=O)CSc2ccc(-c3ccc4c(c3)OCO4)nn2)c1		inactive: -5.01%
COc1cc(C2Nc3ccccc3C(=O)N2c2ccccc2OC)ccc1O (centres undefined)	inconclusive [inhibitor, partial curve]	
CC(=O)Nc1ccc(-c2cn3cccnc3n2)cc1	inconclusive [inhibitor, partial curve]	
CC(NC(=O)COc1ccc(Br)cc1)C(=O)O (centres undefined)		inactive: -14.8%
COc1cc(/C=N/NC(=O)c2sc(N)c(C#N)c2C)cc(Br)c1O		inactive: -20.2%
O=C(O)C1CCCCC1C(=O)Nc1cccc(C(=O)N2CCCCC2)c1 (centres undefined)		inactive: -22.1%
CCOC(=O)C1=C(c2ccccc2)NC(SCC(=O)Nc2cccc(C)c2)=C(C#N)C1c1ccco1 (centres undefined)	inconclusive [inhibitor, single point]	
COc1ccccc1-c1nc(C#N)c(N2CCN(c3ccccc3)CC2)o1	inconclusive [inhibitor, single point]	
CCOc1ccc2nc(NS(=O)(=O)Cc3ccccc3)sc2c1	inconclusive [inhibitor, partial curve]	
Cc1cccc(-c2nc3ccccc3c(=O)n2NC(=O)/C=C/c2ccc([N+](=O)[O-])cc2)c1	inconclusive [inhibitor, partial curve]	
CCCc1cc(=O)[nH]c(SCc2ccccc2Cl)n1	active: 14.1 µM	
Cc1ccc(S(=O)(=O)[N-]c2nc3ccccc3nc2-n2cc[n+](CCC(C)C)c2)cc1	inconclusive [inhibitor, partial curve]	
CC(NC(=O)c1ccc(F)cc1)C(c1cccs1)N1CCN(C)CC1 (centres undefined)		inactive: -11.9%
O=C(c1ccccc1)c1nnc(-c2ccccc2F)o1	inconclusive [inhibitor, partial curve, poor fit]	

Structure (SMILES)	Potency	activity change, negative = inhibition
CCn1c(=S)sc2c(=O)[nH]c(C)nc21	inconclusive [inhibitor, partial curve, poor fit]	
CC(C)CCn1c(N)c(S(=O)(=O)c2cccs2)c2nc3ccccc3nc21	inconclusive [inhibitor, partial curve]	
O=C(CCC1CCCCC1)NCc1ccccn1	active: 31.6 µM	
CC(C)OC(=O)c1cc(=O)[nH]c2ccccc12	inconclusive [inhibitor, partial curve]	
COC(=O)c1c(C(=O)OC)c(-c2ccc(Cl)c(Cl)c2)n2c1CCC2	inconclusive [inhibitor, partial curve]	
O=[N+]([O-])c1ccc(N2CCC(=NOCc3ccc(Cl)cc3)CC2)cc1		inactive: -16.2%
COc1cccc(N2CCN(C(=O)c3ccc(=O)oc3)CC2C)c1 (centres undefined)	inconclusive [inhibitor, partial curve]	
CCOc1ccc(NC(=O)COC(=O)c2c(OC)cccc2OC)cc1		inactive: -25.8%
Cc1cccn2c(N)c(-c3ccccc3)nc12	inconclusive [inhibitor, partial curve]	
O=C1c2ccccc2C(=O)N1Cc1ccc2c(c1)OCO2		inactive: -16.6%
CCCCCNC(=O)c1ccccc1SC	active: 14.1 µM	
COC(=O)Cc1ccc2sc(-c3ccccc3)nc2c1	inconclusive [inhibitor, partial curve]	
CCOc1ccc(/C=C2/SC(=O)NC2=S)cc1	active: 12.6 µM	
COc1cc2c(cc1OC)-c1cc3ccc4c(c3c[n+]1CC2)OCO4	inconclusive [inhibitor, partial curve, poor fit]	
COc1cc(C=O)ccc1OCCSc1ccc(Cl)cc1	active: 11.2 µM	
CCOc1cc(S(=O)(=O)NCC2OCCc3ccccc32)c(OCC)cc1-n1cnnn1 (centres undefined)	inconclusive [inhibitor, partial curve]	
Cc1ccc2c(nc3s/c(=C/c4cccs4)c(=O)n32)c1C	active: 28.2 µM	
CC1CN(C2CCN(C(=O)COc3ccc(Cl)cc3)CC2)CC(C)O1 (centres undefined)		inactive: -2.46%
CCN1CCCC1CNC(=O)c1cc2c(-c3cccc(OC)c3)nn(C)c2s1 (centres undefined)	inconclusive [inhibitor, partial curve]	
Cc1ccc(N2C(=O)N(CC(=O)N3CCCc4ccccc43)C(=O)C2C)cc1 (centres undefined)		inactive: -3.76%
COc1ccc(-c2cc(C(=O)n3cnc4ccccc43)c3ccccc3n2)cc1	inconclusive [inhibitor, partial curve]	
Clc1ccccc1Cn1nnc2c(NCCN3CCOCC3)ncnc21		inactive: -13.6%
COC(=O)c1c(NC(=O)c2nc3nc(C)cc(C(F)F)n3n2)sc2c1CCC2		inactive: -13.8%
CC(C(=O)N1c2ccccc2CCc2ccccc21)n1nnc(-c2ccc(N(C)C)cc2)n1 (centres undefined)	inconclusive [inhibitor, partial curve]	
